Measurements taken from the RNAGym collection of RNA variant scans (doi:10.7554/elife.90254).
Read counts are not given, so values of variants with three or more changes are uncertain.

B1: LINE1-mini (parent)
chain: GGCAGAGCUCAACACAGCGUGGCAAAGUGGCUGUGGCUAGACUGCC

Variants of: B1
Assay: self-cleavage, relative activity (ratio to wild type); higher = more cleavage; in vitro, sequencing; the parent is a self-cleaving ribozyme

Variant | self-cleavage
A4C G30U G36C | 0.29
A4G A6C C37G | 0.34
A4G A14G G44C | 0.1
A4G A16G U20A A26C | 0.09
A4G A25U U32C G40U | 0.05
A4G C10U A14U G35U | 0.17
A4G C13G A24G G27C U43A | 0.19
A4G A16U U20A A26C | 0.06
A4C G22U C37U A39U | 1.16
A4G A6C C15U C37G | 0.07
A4G G5A G22C U32A C46A | 0.01
A4G A11C U32A | 0.02
A4G A16G U34C | 0.08
A4G C15U G27A | 0.8
A4C G29U U43G | 0.04
A4G C18A G27U G40A C42U G44C C45G | 0
A4G C8A C10U C15A C31U G44A C46U | 0.1
A4G A16C U38C U43G | 0
A4G A14U G19U C42U | 0
A4C U28A G30A G35C A39U C42A | 0.03
A4G A26G G30A U38C C42U U43A C45G | 0.08

Variant | self-cleavage
A4C U9C G17U C46U | 0
A4G C8U C15U G29C C37G | 0.04
A4G A24C G36U C42A | 0.07
A4G A24G G29A A39C U43C | 0.2
A4G C10G C42G | 0.02
A4G A12U G35C U43C | 0.13
A4C U32G G33C G35C C37A | 0.11
A4G C15U G22U G35C U43G | 0.04
A4G A6C C18A G19U | 0.25
A4C G33C C37U | 0.07
A4G A39U A41C | 0.09
A4G C13U G30C C37U G40U | 0.03
A4G A6U G35C | 0.02
A4C G21U G33A | 0.02
A4G C15A U34A C42G | 0.07
A4G A6C G17C G35C U38G | 0.03
A4C U32G U38G C45U | 0.01
A4G G5C G30A G40A | 0.04
A4G C18G U43A | 0.16
A4G A12C U28G A41U C42G | 0.02
A4G A26C G27A | 0.08

Variant | self-cleavage
A4G A11G A24C | 0.02
A4G C8A U28A | 0.92
A4G G5C U32C G36C | 0.05
A4G A11C U32A G33A G35C G44A | 0.01
A4G A16C G22U A25C C37U U43C | 0
A4C U34G C42G | 0.02
A4G A14C U32A | 0.07
A4G C15U G19U G33C C45U | 0.02
A4G A14G G17U G21U G35U | 0.09
A4G G5A C10A G21A A24C G27A C42U U43G | 0.01
A4G A11C G30A C46A | 0
A4C G35C A39U | 0.09
A4C G27U G40U | 0.39
A4C U9A A41C | 0.36
A4G A12G C18A C23U G35C | 0
A4G A24U C31A | 0.12
A4G A16C G17C | 0.09
A4G C18G C37U | 0.04
A4G G5A U9C G40U | 0.03
A4C G35U C37U A41G | 0.02
A4G C18U U38A | 0.7

Variant | self-cleavage
A4G A11C C23U A26C | 0
A4G A24U G33A | 0.19
A4G A12U G30C G40A | 0.02
A4C G22A C23G A26C A41U | 0.48
A4G C23U C45G | 0.13
A4G G5C A41U | 0.14
A4G A12U G22C G29A C46U | 0.23
A4C G35A A39U | 0.01
A4G C13G C18G | 0.13
A4G A6G A14U G27A | 0.09
A4G C18G G40A | 0.26
A4C U9G C10U | 0.08
A4C U20C C45A | 0.02
A4G A12C C42G G44C C46A | 0.01
A4C G22A G30C U34G G36U C42A G44U C46U | 0.02
A4G C8U C18A C45G | 0.03
A4G A6C A25G A26C G30A | 0.17
A4C U28G A41U | 0.15
A4G A12G C15G A39U | 0.06
A4G A6C G35U | 0.08
A4G A11C C13A A16U A26C | 0.01
